PubChem BioAssay AID1460 (National Center for Advancing Translational Sciences (NCATS), 2008)
Values joined by “and” are separate entries in the source; they are usually repeats but may differ in a detail not shown here. Identical values can stand only once. Hit rate of the full screen: of about 270,000 compounds, about 5,800 (2.1%) were called active. This list was built around the results that the source calls inconclusive (neither active nor inactive); the mix of calls is not that of the screen. The call rests on the fitted dose curve; in most records, active means well fitted inhibition curve with a large enough effect; inconclusive means small, poorly fitted or top-dose-only effect; inactive means flat fitted curve, though single readings scatter. Potencies beside an inconclusive call are fits to weak or partial responses and may not hold up.

These molecules were tested against Microtubule-associated protein tau (Homo sapiens) (UniProt P10636) (assay: qHTS for Inhibitors of Tau Fibril Formation, Thioflavin T Binding). Settings: recombinant tau K18 P301L (four-repeat tau fragment), heparin-induced fibrillization, ThT fluorescence; series mostly up to 57.4 µM.
Chain of UniProt P10636 (P10636 whole entry, looked up, the tested form may be a part): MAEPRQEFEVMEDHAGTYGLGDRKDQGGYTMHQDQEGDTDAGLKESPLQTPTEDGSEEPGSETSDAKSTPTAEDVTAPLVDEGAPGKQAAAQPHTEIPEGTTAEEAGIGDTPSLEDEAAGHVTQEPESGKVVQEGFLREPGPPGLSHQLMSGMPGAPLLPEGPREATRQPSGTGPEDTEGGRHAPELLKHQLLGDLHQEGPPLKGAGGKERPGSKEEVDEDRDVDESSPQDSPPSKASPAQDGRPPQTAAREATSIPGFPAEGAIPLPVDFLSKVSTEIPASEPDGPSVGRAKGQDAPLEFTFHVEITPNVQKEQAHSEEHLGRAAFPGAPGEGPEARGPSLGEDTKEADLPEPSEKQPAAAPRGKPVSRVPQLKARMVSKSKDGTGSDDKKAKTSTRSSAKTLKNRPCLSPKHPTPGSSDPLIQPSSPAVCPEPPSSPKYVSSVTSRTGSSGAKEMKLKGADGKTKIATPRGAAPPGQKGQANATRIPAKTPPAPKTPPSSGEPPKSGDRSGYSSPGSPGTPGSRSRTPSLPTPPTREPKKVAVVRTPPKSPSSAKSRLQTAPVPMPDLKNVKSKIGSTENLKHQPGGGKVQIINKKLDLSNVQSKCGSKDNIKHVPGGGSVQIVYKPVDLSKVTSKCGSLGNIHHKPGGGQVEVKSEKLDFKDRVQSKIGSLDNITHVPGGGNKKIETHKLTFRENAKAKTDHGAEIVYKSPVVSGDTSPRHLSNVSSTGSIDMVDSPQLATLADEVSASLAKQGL
Procedure, shortened: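 Recombinant human tau K18 fragment […] carrying P301L, 15 uM unlabeled plus 0.24 uM Alexa 594-labeled, was fibrillized with 20 uM heparin in 100 mM sodium acetate pH 7 for 6 hr at 37 C; 30 uM ThT fluorescence read after 1 hr.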
Further: nearly all actives have a fitted effect of over 55% in size.
Potency means the concentration at half of the fitted maximal effect; tags describe the fitted curve by direction and shape.

| SMILES | Potency |
| --- | --- |
| O=C(Nc1ccc(S(=O)(=O)Nc2nccs2)cc1)C1=NN(c2ccccc2)C(=O)CC1 | inconclusive: 12.6 µM [inhibitor, partial curve] |
| Cc1cccc(-n2nc3c([n+]2[O-])CCc2nonc2-3)c1C | inactive |
| CC(C)NC(=O)CC(=O)N/N=C/c1ccc(Br)cc1 | inactive |
| O=C(N/N=C\c1ccccc1O)c1ccccc1O | inactive |
| Cc1cc(NC(=O)c2cc(-c3ccco3)on2)no1 | inconclusive: 39.8 µM [inhibitor, partial curve, poor fit] |
| Cc1cc(C)n(-c2nc(NCCN(C)C)c3c4c(sc3n2)CCCC4)n1 | inconclusive: 2.82 µM [inhibitor, partial curve, poor fit] |
| Cc1ccc(NC(=O)c2c(C)nn(-c3ccccc3)c2Cl)cc1 | inactive |
| CCCC(C)NC(=O)c1sc2nc3n(c(=O)c2c1C)CCC3 (stereo unspecified) | inactive |
| CCc1ccccc1NC(=O)CCc1c(C)nc2cc(-c3ccccc3)nn2c1C | inactive |
| Cc1ccc(Nc2ccc(N3CCN(C(=O)c4ccc([N+](=O)[O-])cc4Cl)CC3)nn2)cc1 | inconclusive: 14.1 µM [inhibitor, partial curve] |
| O=c1c2c3nc4ccccc4nc3n(Cc3ccccc3)c2ncn1Cc1ccco1 | inconclusive: 15.8 µM [inhibitor, partial curve] |
| CC(=O)Nc1ccc(NCc2nnc3n2CCCCC3)cc1 | inactive |
| O=C1N=C(C=c2ccc(=Cc3[nH]c(=O)[nH]c3O)cc2)C(=O)N1 | inconclusive: 39.8 µM [inhibitor, single point] |
| Cn1c(O)c(N=Nc2ccc(F)cc2)c2ccccc21 | active: 12.6 µM |
| C=CCOC(=O)NC(CC(=Nc1ccc(OC)cc1)C(=O)OC)c1ccccc1 (stereo unspecified) | inactive |
| O=c1onc2cnc3ccccc3n12 | inactive and inconclusive: 14.1 µM [inhibitor, partial curve] |
| COc1cc(C)c(Cl)cc1S(=O)(=O)NCCc1c(C)[nH]c2ccccc12 | inactive |
| COc1ccc2c(c1)CCc1c(C(=O)N3CCCc4ccccc43)noc1-2 | inconclusive: 10 µM [inhibitor, partial curve] |
| Cc1ccnc(N/C=C(\C#N)c2nc(-c3cccc(Br)c3)cs2)c1 | inconclusive: 20 µM [inhibitor, partial curve] |
| NC(=O)c1c(NC(=O)c2cccnc2)sc2c1CCCC2 | inconclusive: 5.62 µM [inhibitor, partial curve, poor fit] |
| C=CCOC(=O)C1=C(C)NC(SCC(=O)OCC)=C(C#N)C1c1ccc(O)c(OC)c1 (stereo unspecified) | inconclusive: 39.8 µM [inhibitor, single point] |
| COc1cccc(NC(=O)Cn2cc(C(=O)C3CCCCC3)c3ccccc32)c1 | inactive |
| Cc1ccc(C)c(N2CCN(C(=O)c3cnc4c(-c5ccccc5)c(C)nn4c3C)CC2)c1 | inactive |
| Cc1ccc(-n2c(C)c3c(C)nnc(C)c3c2C)cc1C | inconclusive: 31.6 µM [inhibitor, partial curve] |

| SMILES | Potency |
| --- | --- |
| Cc1cc(C(=O)N2CCN(c3ccccn3)CC2)c(C)o1 | inconclusive: 20 µM [inhibitor, single point] |
| COc1ccc2oc(=O)c(-c3csc(/C(C#N)=C/c4ccc(F)cc4)n3)cc2c1 | inactive |
| Cc1cc(O)c(C(C[N+](=O)[O-])c2ccc(Cl)cc2Cl)c(=O)o1 (stereo unspecified) | active: 28.2 µM |
| Cc1ccc2nsnc2c1NC(=O)c1cncc(Br)c1 | inconclusive: 15.8 µM [inhibitor, partial curve, poor fit] |
| Cc1ccc(CNC(=O)CCCn2c(=O)c3ccccc3n(CC(=O)C(C)(C)C)c2=O)cc1 | inactive |
| COc1ccccc1/C=C/C(=O)NCC(=O)N/N=C/c1cc(Br)ccc1OC | inconclusive: 12.6 µM [inhibitor, partial curve] |
| CC1(OC(=O)c2cccs2)C(=O)C=C2C=C(c3ccsc3)OC=C2C1=O (stereo unspecified) | inactive |
| C/C(CC(=O)N1CCN(C=O)CC1)=N\NC(=O)c1ccc([N+](=O)[O-])cc1 | inactive |
| COc1cccc(NC(=O)c2sc3nc(N4CCOCC4)c4c(c3c2N)CC(C)(C)OC4)c1 | inactive |
| COc1cc(-c2nc(C)c(C(C)=O)n2O)ccc1OCC(=O)Nc1ccc(Cl)cc1 | inconclusive: 12.6 µM [inhibitor, partial curve] |
| N#Cc1c(-c2cccs2)nc(SCC(=O)c2cccs2)[nH]c1=O | inconclusive: 22.4 µM [inhibitor, single point] |
| CCN(CC)C(=O)c1ccc(Oc2ccc([N+](=O)[O-])cc2Cl)cc1 | inactive |
| O=C1CCC(=O)N1c1cccc(OS(=O)(=O)c2ccccc2)c1 | inactive |
| CC(C)c1ccc(CCNC(=O)c2ccc([N+](=O)[O-])cc2)cc1 | inconclusive: 5.01 µM [inhibitor, partial curve] |
| Cc1ccc(N2CCN(c3ccc(C)cc3)C2c2cccnc2)cc1 | inconclusive: 15.8 µM [inhibitor, partial curve] |
| COc1ccc(OC)c(Nc2nc(-c3ccc(C)cc3)nc3ccccc23)c1 | inactive |
| COc1ccc(NC(=O)c2cc3cc(OC)ccc3oc2=N)cc1 | inconclusive: 0.631 µM [inhibitor, full curve] |
| CC(=O)c1ccc(N/N=C2/CCCNC2=O)cc1 | inconclusive: 35.5 µM [inhibitor, single point] |
| O=C(CC1N=C2c3ccccc3N=C(SCc3ccc(Cl)cc3)N2C1=O)NCCc1ccccc1 (stereo unspecified) | inconclusive: 39.8 µM [inhibitor, partial curve] |
| Clc1ccc(Nc2nc(-c3cccnc3)cs2)cc1 | inconclusive: 7.08 µM [inhibitor, partial curve] |
| CCOC(=O)C1CCN(c2nc(C)nc3c2oc2ccccc23)CC1 | inconclusive: 0.251 µM [inhibitor, partial curve, poor fit] |
| Brc1ccccc1-n1ncc2c1ncn1nc(Cc3ccccc3)nc21 | inconclusive: 22.4 µM [inhibitor, partial curve, poor fit] |
| c1ccc(CNCCC(Cc2ccccc2)c2ccco2)cc1 (stereo unspecified) | inactive |
| Cc1ccc(S(=O)(=O)/C(C#N)=C/c2c(N3CCC(C(N)=O)CC3)nc3ccccn3c2=O)cc1 | inconclusive: 39.8 µM [inhibitor, single point] |

| SMILES | Potency |
| --- | --- |
| O=C(O)CCC(=O)N1CCN(c2nc(-c3ccccc3Cl)c3cc(Br)ccc3n2)CC1 | inconclusive: 10 µM [inhibitor, partial curve] |
| CCN(CC)c1ccc(C(=O)NCc2ccc3c(c2)CCN3C(=O)c2ccccc2)cc1 | inconclusive: 12.6 µM [inhibitor, partial curve] |
| CCOC(=O)c1c(NC(=O)c2cc(CC)on2)sc(C)c1C | inconclusive: 39.8 µM [inhibitor, single point] |
| COc1ccc(C2C(C(C)=O)=C(O)C(=O)N2c2ccc(Br)cn2)cc1 (stereo unspecified) | inconclusive: 20 µM [inhibitor, partial curve] |
| CCN(CC)S(=O)(=O)c1ccc2c(c1)N(CC(=O)NCCc1ccc(OC)c(OC)c1)C(=O)CO2 | inactive |
| COC(=O)c1[nH]c2cc(OC)c(OC)cc2c1NC(=O)CN1CCN(Cc2ccccc2)CC1 | inconclusive: 17.8 µM [inhibitor, partial curve] |
| CN(C)c1nc(Nc2ccccc2)nc(N(C)C)n1 | inactive |
| O=C(Nc1ccccn1)c1ccc2c(c1)S(=O)(=O)c1ccccc1C2=O | inconclusive: 1.12 µM [inhibitor, full curve, poor fit] |
| Cc1cc(C(=O)N/N=C/c2ccc([N+](=O)[O-])s2)n[nH]1 | inconclusive: 5.62 µM [inhibitor, partial curve] |
| Cc1ccc(S(=O)(=O)NC2(C(F)(F)F)NC(=O)N(C)C2=O)cc1 (stereo unspecified) | inactive |
| CCOc1ccccc1NC(=O)c1cn(C2CCCC2)c(=O)c2c1c1ccccc1n2C | inactive |
| Cc1cccc(-n2ncc3c(N(C)C4CCCCC4)ncnc32)c1 | inconclusive: 31.6 µM [inhibitor, single point] |
| COC1(OC)C(/C=C/c2ccc(Cl)cc2)C(C#N)(C#N)C1(OC)OC (stereo unspecified) | inconclusive: 14.1 µM [inhibitor, partial curve] |
| CCCCOc1ccc(N2C(=O)CC(N(O)c3ccccc3)C2=O)cc1 (stereo unspecified) | inconclusive: 7.94 µM [inhibitor, partial curve] |
| O=C(/C=C/c1ccco1)NC(=S)Nc1ccccc1O | active: 22.4 µM |
| O=C(O)/C=C\c1cn(-c2ccccc2)nc1-c1cc2ccccc2o1 | inconclusive: 35.5 µM [activator, single point] |
| S=C(NCc1ccc2[nH]c3c(c2c1)CCCC3)Nc1ccccc1 | inconclusive: 20 µM [inhibitor, partial curve, poor fit] |
| COc1cc(-c2nc(-c3ccc(NC(=O)c4ccc(Br)o4)cc3)no2)cc(OC)c1OC | inconclusive: 0.708 µM [inhibitor, full curve, poor fit] |
| COc1ccc(-n2c(=O)c3sc4ccccc4c3n(CC(=O)Nc3cccc(C)c3)c2=O)cc1 | inactive |
| O=S(=O)(c1cccc(-c2nnc(SCc3nc4ccccc4s3)o2)c1)N1CCOCC1 | inconclusive: 17.8 µM [inhibitor, partial curve] |
| CCOC(=O)c1sc(-c2ccc(Cl)cc2Cl)nc1O | inconclusive: 15.8 µM [inhibitor, partial curve] |
| Cc1ccc(-c2ccc(C(=O)Nc3cccc(F)c3)o2)c2ccccc12 | inconclusive: 8.91 µM [inhibitor, full curve] |
| O=C(Cc1cccc2ccccc12)NN1C(=O)CSC1=S | inconclusive: 11.2 µM [inhibitor, partial curve] |
